From patent US9822170B2, “Co-use of a clusterin inhibitor with an EGFR inhibitor to treat cancer” (ALETHIA BIOTHERAPEUTICS INC., priority 2012, dated 2017)

Columns and labels:
Assay type in all cases: cell-based, human
EGFR in H226 cells [1] = assay: EGFR tyrosine phosphorylation by Western blot after EGF treatment; conditions: 10 μg/ml for 48 h, then EGF 10 ng/ml, versus untreated
Description: (§1) In order to address this question, conditions were optimized to measure the expression and phosphorylation of the receptor in these cells. EGFR is known to be phosphorylated very rapidly following exposure to its ligands, including EGF. In parallel with this phosphorylation, the receptor is internalized and recycled and its presence is lost from the cell surface. Two cell lines, A549 and H226, which secreted relatively high levels of sCLU were selected for this analysis. The cells were seeded in multi-well plates and treated for 48 h with 10 μg/ml h16B5, 10 μg/ml control IgG or the vehicle, PBS. Following this incubation, the cells were treated with EGF (10 ng/ml) and the cells were harvested at different times and converted to lysates. These lysates were electrophoresed by SDS-PAGE, the proteins transferred to a nylon membrane and used in Western blots to examine the expression or phosphorylation of EGFR. To measure the expression of EGFR, a commercial antibody designated clone 1005 (Santa Cruz, Biotech, Santa Cruz, Calif.) was used whereas the phosphorylation of EGFR was monitored with an anti-phosphotyrosine antibody designated clone 4G10 (Millipore, Etobicoke, ON). […]
(§2) The activation of EGFR in these cells was also examined. […] However, when the cells were treated with EGF, the appearance of phosphorylated tyrosine residues was detected, even after 2 min (upper panel, lane 2 and lane 6). […]

EGFR in A549 cells [2] = assay: as above; conditions: 10 μg/ml for 48 h, then EGF 10 ng/ml, versus untreated and control IgG
Description: as §1, §2

EGFR in H226 cells [3] = assay: EGFR expression by Western blot after EGF treatment; conditions: 10 μg/ml for 48 h, then EGF 10 ng/ml, versus control
Description: as §1

EGFR in A549 cells [4] = assay: as above; conditions: 10 μg/ml for 48 h, then EGF 10 ng/ml, versus vehicle
Description: as §1

A549 cells = assay: E-cadherin cell-surface immunofluorescence; conditions: 10 μg/ml, 48 h, versus control IgG
Description: We also examined the expression of E-cadherin by monitoring its expression on the surface of A549 cells using immunofluorescence. Briefly, the cells were seeded on coverslips and incubated with either a control IgG or h16B5 at 10 μg/ml for 48 h. Following this incubation, the cells were fixed with paraformaldehyde and incubated with a mouse anti-human E-cadherin antibody (manufacturer) for 1 h. After washing, the E-cadherin stained cells were incubated with a secondary antibody conjugated to Rhodamine Red-X. The slides were mounted and specific E-cadherin staining was visualized by fluorescence microscopy.

B1: h16B5: humanized form of anti-clusterin antibody 16B5; heavy chain SEQ ID NO.:9, light chain SEQ ID NO.:10 (antibody)
heavy: QVQLVQSGAEVKKPGATVKISCKVSGFNIKDIYMHWVQQAPGKGLEWMGRIDPAYGNTKYDPKFQGRVTITADTSTDTAYMELSSLRSEDTAVYYCARRYDTAMDYWGQGTLVTVSSASTKGPSVFPLAPCSRSTSESTAALGCLVKDYFPEPVTVSWNSGALTSGVHTFPAVLQSSGLYSLSSVVTVPSSNFGTQTYTCNVDHKPSNTKVDKTVERKCCVECPPCPAPPVAGPSVFLFPPKPKDTLMISRTPEVTCVVVDVSHEDPEVQFNWYVDGVEVHNAKTKPREEQFNSTFRVVSVLTVVHQDWLNGKEYKCKVSNKGLPAPIEKTISKTKGQPREPQVYTLPPSREEMTKNQVSLTCLVKGFYPSDIAVEWESNGQPENNYKTTPPMLDSDGSFFLYSKLTVDKSRWQQGNVFSCSVMHEALHNHYTQKSLSLSPGK
light: DIVMTQSPDSLAVSLGERATINCKSSQSLLNSRTRKNYLAWYQQKPGQPPKLLIYWASTRESGVPDRFSGSGSGTDFTLTISSLQAEDVAVYYCKQSYNLWTFGQGTKLEIKVAAPSVFIFPPSDEQLKSGTASVVCLLNNFYPREAKVQWKVDNALQSGNSQESVTEQDSKDSTYSLSSTLTLSKADYEKHKVYACEVTHQGLSSPVTKSFNRGEC
modifications: Complete heavy chain immunoglobulin sequence for h16B5; Complete light chain immunoglobulin sequence for h16B5
EGFR tyrosine phosphorylation after EGF (EGFR in H226 cells [1]): difference in the phosphorylation of EGFR was reproduced | EGFR tyrosine phosphorylation after EGF (EGFR in A549 cells [2]): higher amount of phosphorylated tyrosine residues on the EGFR | EGFR expression after EGF (EGFR in H226 cells [3]): no decrease in EGFR was seen | EGFR expression after EGF (EGFR in A549 cells [4]): protected the cells from the EGF-induced degradation of the receptor | intensity of E-cadherin staining on the cell surface (A549 cells): marked increase in the intensity of E-cadherin staining
